Measured values as given in PubChem BioAssay AID360 (National Center for Advancing Translational Sciences (NCATS), 2006).
The campaign covered roughly 48,000 compounds. About 550 (1.1%) were called active. Another 4% or so got no clear call; they are omitted. Cut-off read from the data, not from the text of the source: active = potency below about 15 µM; inconclusive = mostly about 16 µM to 33 µM; inactive = weaker than that. The list shows a part of the results.

Target: Lysosomal acid glucosylceramidase (Homo sapiens) (UniProt P04062)
Chain of UniProt P04062 (P04062 whole entry, looked up): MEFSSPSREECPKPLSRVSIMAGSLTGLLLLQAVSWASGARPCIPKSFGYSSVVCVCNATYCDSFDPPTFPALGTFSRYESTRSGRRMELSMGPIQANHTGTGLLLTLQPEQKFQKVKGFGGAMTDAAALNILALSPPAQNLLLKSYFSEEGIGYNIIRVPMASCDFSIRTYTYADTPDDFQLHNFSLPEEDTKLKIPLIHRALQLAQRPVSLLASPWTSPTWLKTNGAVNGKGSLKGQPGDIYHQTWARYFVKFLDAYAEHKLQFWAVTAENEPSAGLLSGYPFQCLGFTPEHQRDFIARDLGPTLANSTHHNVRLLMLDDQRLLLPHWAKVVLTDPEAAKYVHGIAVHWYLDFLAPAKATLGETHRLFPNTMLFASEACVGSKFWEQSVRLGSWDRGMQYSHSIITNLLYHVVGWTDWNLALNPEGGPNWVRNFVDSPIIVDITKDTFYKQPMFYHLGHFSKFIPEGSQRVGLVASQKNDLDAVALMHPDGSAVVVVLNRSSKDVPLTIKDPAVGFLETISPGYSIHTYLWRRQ
Test: Glucocerebrosidase;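 note: the screen sought inhibitors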
Details: purified enzyme, resorufin glucoside fluorescence (screen aimed at inhibitors), 20 min
How it was run: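 Compounds titrated against 0.2 nM normal enzyme, 30 uM resorufin beta-D-glucopyranoside substrate, citrate/phosphate buffer with taurocholate and tween-20, pH 5.9. Reaction ran 20 min at room temperature; fluorescence (Ex 548/Em 600) gave AC50.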
Potency is the fitted concentration of half-maximal effect.

Potency, inactive:
O=C1CCCc2c1cc(C(=O)NCc1ccco1)c(=O)n2-c1ccccc1 > 76.9 µM
CC(C)n1c(SC2C(=O)CC(C)(C)CC2=O)nc2c1c(=O)n(C)c(=O)n2C > 76.9 µM
CCOC(=O)Cc1csc(SCC(=O)Nc2cccc(C#N)c2)n1 > 76.9 µM
CCOC(=O)CCc1nn(C)c(=O)c2ccccc12 > 76.9 µM
Cc1cc(N2CCOCC2)n2nc(C)c(-c3ccccc3)c2n1 > 76.9 µM
CCOc1cc(S(=O)(=O)NCc2ccccn2)c(C)cc1C > 76.9 µM
CC(=O)c1cc2c(cc1NC(=O)CSc1nnc(C)s1)OCO2 > 76.9 µM
N#C/C(=C\c1ccco1)Sc1nc2ccccc2s1 > 76.9 µM
Cn1c(SCc2ccccc2)nnc1C1CCCNC1 (stereo unspecified) > 76.9 µM
O=c1oc2ccccc2c(N2CCCCC2)c1CN1CCCCC1 > 76.9 µM
COc1cccc(C2=NO[C@@H]3C(=O)N(c4ccc5c(c4)OCCO5)C(=O)[C@H]23)c1OC > 76.9 µM
O=C(Nc1nc(-c2ccc3c(c2)OCO3)cs1)c1ccncc1 > 76.9 µM
O=C(Oc1ccc2c(c1)OCO2)c1ccc(Br)c(S(=O)(=O)N2CCOCC2)c1 > 76.9 µM
COc1cccc(N(CC(=O)NCCSc2ccccc2)S(C)(=O)=O)c1 > 76.9 µM
Cc1ccc(-n2c(O)cnc2Nc2nc(C)cc(C)n2)cc1 > 76.9 µM
Clc1cccc2sc(N3CCOCC3)nc12 > 76.9 µM
Cc1ccc(NCc2nnc(SCCN3CCCCC3)n2CC2CCCO2)c(C)c1 (stereo unspecified) > 76.9 µM
N#CCCn1c(SCC(=O)NCC2CCCO2)nc2ccccc21 (stereo unspecified) > 76.9 µM
CCNc1nc(SC(C)C(=O)OC)nc(N2CCOCC2)n1 (stereo unspecified) > 76.9 µM
CS(=O)(=O)Nc1ccccc1C(=O)c1ccccc1 > 76.9 µM
CCOc1ccc(CCNC(=O)C2CCN(S(=O)(=O)CC)CC2)cc1OCC > 76.9 µM
COc1ccc(C)cc1NC(=O)c1cc2cc3ccc(C)cc3nc2o1 > 76.9 µM
CC(C)Oc1cccc(C(=O)O)c1 > 76.9 µM
CCNC(=O)CC1C(=O)N(c2ccc(F)cc2)C(=O)N1CCC(C)C (stereo unspecified) > 76.9 µM
Cc1ccc(S(=O)(=O)N2CCCN(S(=O)(=O)C3CCS(=O)(=O)C3)CC2)cc1 (stereo unspecified) > 76.9 µM
Cc1ccc2nc3c(cc(C#N)c(=N)n3CC3CCCO3)c(=O)n2c1 (stereo unspecified) > 76.9 µM
Cc1ccc(-c2noc(C3CCCN(C(=O)c4ccccc4)C3)n2)o1 (stereo unspecified) > 76.9 µM
CCOC(=O)Cn1c(C)c(Br)c(=O)c2cccc(C)c21 > 76.9 µM
O=C(Nc1ccc(NC(=O)C23CC4CC(CC(C4)C2)C3)cn1)c1ccco1 > 76.9 µM
Cc1ccc(Cn2ncc3c(NCCCN4CCOCC4)ncnc32)cc1
CCN(C(=O)COC(=O)C(Cc1ccccc1)N1C(=O)c2ccccc2C1=O)C1CCS(=O)(=O)C1 (stereo unspecified) > 76.9 µM
O=C(NCCN1CCOCC1)c1ccc(-c2ccccc2)cc1
CCOC(=O)CN(C(=O)CSc1nnc(-c2cccc(OC)c2)o1)c1ccc(F)cc1 > 76.9 µM
COC(=O)c1[nH]c2ccccc2c1NS(=O)(=O)c1ccc(F)c(C)c1 > 76.9 µM
Cc1ccccc1-c1nc2ccccc2c(=O)n1C1CCS(=O)(=O)C1 (stereo unspecified) > 76.9 µM
COP(=O)(/C=C/c1ccccc1)C(O)c1ccc(F)cc1 (stereo unspecified) > 76.9 µM
COc1ccc(OCCOCC(O)CN2CCOCC2)cc1 (stereo unspecified) > 76.9 µM
CCOc1ccccc1C1CC(=O)Nc2cc(OC)c(OC)c(OC)c21 (stereo unspecified) > 76.9 µM
COC(=O)c1sc(NC(=O)C2CCCO2)c(C(=O)OC)c1C (stereo unspecified) > 76.9 µM
CCC(c1nnnn1C(C)(C)C)N(CCOC)Cc1cc2cccc(C)c2n2nnnc12 (stereo unspecified) > 76.9 µM
Cn1c(Cc2csc(N)n2)nnc1SCC(=O)NC1CCCCC1 > 76.9 µM
c1ccc(CCc2nc(-c3cccnc3)no2)cc1 > 76.9 µM
Cc1ccc(Nc2c3c(nc4ncnn24)CCC3)cc1 > 76.9 µM
O=C(CSc1nc2[nH]ncc2c(=O)n1-c1ccccc1Br)NCc1ccco1 > 76.9 µM
Cc1onc(-c2ccccc2)c1C(=O)Nc1ccnn1C1CCCCC1 > 76.9 µM
CC1CCCN(C(=O)CSc2nnc(-c3ccc(S(=O)(=O)N4CCOCC4)cc3)n2C)C1 (stereo unspecified) > 76.9 µM
CCN(CC)c1ccc(NC(=O)C(C)C)cc1 > 76.9 µM
O=S1(=O)CCN2C(c3ccc4c(c3)CCCC4)=CSC2=N1 > 76.9 µM
O=C(CN1CCN(C(=O)c2ccccc2)CC1)Nc1ncc(Br)cc1Br > 76.9 µM
N#CCCSCc1ccc2oc(C(=O)O)cc2c1 > 76.9 µM
Brc1ccc(CSc2nnc(-c3cnccn3)n2Cc2ccco2)cc1 > 76.9 µM
O=C(Cn1c(=O)c2c(ncn2Cc2ccccc2)n(Cc2ccccc2)c1=O)NC1CC1 > 76.9 µM
COc1ccc(C(=O)n2ccc(C)n2)cc1Br > 76.9 µM
CCN1CCCC1CNC(=O)CSc1cc(=O)n(C)c2cc(Cl)ccc12 (stereo unspecified) > 76.9 µM
Cc1nc2cc(S(=O)(=O)C(F)(F)F)ccc2s1 > 76.9 µM
N#Cc1cc(-c2ccccc2)oc1NC(=O)c1ccco1 > 76.9 µM
COc1cc(C(=O)N(Cc2cc3ccccc3[nH]c2=O)CC2CCCO2)cc(OC)c1OC (stereo unspecified) > 76.9 µM
Cn1c(N)c(C(=O)COC(=O)c2ccco2)c(=O)n(C)c1=O > 76.9 µM
Cc1c(C(=O)O)oc2ccc(S(=O)(=O)NCc3ccc4c(c3)OCO4)cc12 > 76.9 µM
COc1ccc(CNC(=O)CSc2nnnn2-c2ccc(O)cc2)cc1 > 76.9 µM
c1ccc2c(c1)CCCN2Cc1nnnn1C1CCCC1 > 76.9 µM
CCOc1ccccc1-c1nc(C(N)=O)c2[nH]c(=O)n(-c3cccc(C)c3)c2n1 > 76.9 µM
Cc1nn(C)c(C)c1CN(C)C(=O)c1cnn2c1NC(c1ccccc1)CC2C(F)(F)F (stereo unspecified) > 76.9 µM
CCOC(=O)c1ccccc1NC(=O)CSc1nnc(COc2ccccc2C)n1C > 76.9 µM
COc1cc(C(=O)Nc2nc(-c3cccs3)cs2)cc(OC)c1OC > 76.9 µM
CCCCOC(=O)Cn1c(=O)c2c(nc(Br)n2Cc2ccccc2)n(C)c1=O > 76.9 µM
COc1ccc(-n2c3c(cc(C(=O)N4CCCCC4)c2=O)C(=O)CC(C)(C)C3)cc1 > 76.9 µM
Cc1cccnc1NCC(O)COc1ccccc1 (stereo unspecified) > 76.9 µM
c1ccc(Cn2ncc3c2ncn2nc(-c4ccncc4)nc32)cc1 > 76.9 µM
Cn1c(=O)[nH]c(=O)c2c1nc(SCCN1CCCCC1)n2CCCc1ccccc1 > 76.9 µM
O=C(NCN1CCc2ccccc2C1)c1ccccc1 > 76.9 µM
O=C(Cn1ncnn1)OCc1ccccc1Cl > 76.9 µM
Cn1c(=O)c2c(nc(CN3CCN(C(=O)c4ccco4)CC3)n2Cc2ccccc2)n(C)c1=O > 76.9 µM
COCCNC(=O)C(c1cccs1)N(C(=O)Cn1nnc2ccccc21)c1cccc(C)c1 (stereo unspecified) > 76.9 µM
Cn1nnnc1SCCNS(=O)(=O)c1ccccc1 > 76.9 µM
CC1(N2CCCCC2)CC2(O)C(=[N+]1[O-])CCC/C2=N\O (stereo unspecified) > 76.9 µM
CC1Cc2ccccc2N1C(=O)COC(=O)Cn1cnc2ccccc2c1=O (stereo unspecified) > 76.9 µM
Cc1nc2ccccc2n1-c1nc(-c2ccco2)cc(C(F)(F)F)n1 > 76.9 µM
Cc1ccc(S(=O)(=O)Cc2ccc(C(=O)NCCCN3CCCC3=O)o2)cc1 > 76.9 µM
O=C(O)CCn1nnc(-c2cccs2)n1 > 76.9 µM
Cc1ccc(-c2noc(CCCC(=O)N3CCOCC3)n2)cc1 > 76.9 µM
CN(C)Cc1cc(C(C)(C)c2cc(CN(C)C)c(O)c(CN(C)C)c2)cc(CN(C)C)c1O > 76.9 µM
Cc1cc(N2CCN(S(=O)(=O)Cc3ccccc3)CC2)n2ncnc2n1 > 76.9 µM
CCCCOc1[nH]c2nc(-c3ccco3)n(Cc3ccco3)c(=N)c2c1C#N > 76.9 µM
Cc1cc(NS(=O)(=O)c2ccc(NC(=O)CCc3ccccc3)cc2)no1 > 76.9 µM
COc1ccccc1-c1nn2c(-c3ccccc3Cl)nnc2s1 > 76.9 µM
OC1CN=C2C=CC=CN2C1 (stereo unspecified) > 76.9 µM
C/C=C/Cn1c(Br)nc2c1c(=O)n(C)c(=O)n2C > 76.9 µM
COc1ccc(OC)c2[nH]c(=O)c(CCNC(=O)c3ccc(Br)o3)cc12 > 76.9 µM
COC(=O)c1ccccc1COn1c(=O)c[n+]([O-])c2ccccc21 > 76.9 µM
COC(=O)c1[nH]c2ccc(C)cc2c1NC(=O)CN1CCCc2ccccc21 > 76.9 µM
